{"source": "PubChem BioAssay AID662", "about": "(National Center for Advancing Translational Sciences (NCATS), 2007)", "note": "Hit rate of the full screen: of about 71,000 compounds, about 1,800 (2.5%) were called active. Inconclusive results, whose numbers are uncertain, are shown with a selection of clear calls. The call rests on the fitted dose curve; in most records, active means well fitted activation curve with a large enough effect in the signal ratio, with a control signal flat (not every such curve was filed as active); inconclusive means small, poorly fitted or top-dose-only effect, or effect the other way, or a change in a side signal; inactive means flat fitted curve, though single readings scatter; the % refers to the signal ratio. Where the call is inconclusive, the potency comes from a doubtful curve fit. Potency means the concentration at half of the fitted maximal effect; tags describe the fitted curve by direction and shape."}
{"test": "Cell signaling CRE-BLA (Fsk stim); on activity change, negative = inhibition: % of control where 0% means no effect", "conditions": "CHO CRE-bla reporter (cAMP response element driving beta-lactamase), forskolin EC10, beta-lactamase ratio; activity change, negative = inhibition: at 38.2 µM (top of the series) unless noted", "outline": "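Forskolin analogue NKH 477 at EC10 stimulated CRE-driven beta-lactamase in CHO cells alongside compound dilution series. Beta-lactamase was measured with CCF4, excitation 405 nm, emission ratio 460/530 nm.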"}
{"smiles": "O=S(=O)(Nc1ccn(-c2ccccc2)n1)c1ccc(Br)cc1", "activity change, negative = inhibition": "inconclusive: -20.2%"}
{"smiles": "C=CCN1C(=Nc2cccnc2)SCC1(O)c1ccc(C)cc1", "note": "(stereo not drawn)", "Potency": "inconclusive: 10 µM [rising, partial curve]"}
{"smiles": "CNC(=O)[C@H]1O[C@H](n2cnc3c(NCc4cccc(I)c4)ncnc32)[C@@H](O)[C@@H]1O", "activity change, negative = inhibition": "inconclusive: 37.2%"}
{"smiles": "COc1ccccc1N1CCN(C(=O)CSc2nnc(NC(=O)C3CC3)s2)CC1", "activity change, negative = inhibition": "inconclusive: 5.66%"}
{"smiles": "COC(=O)c1ccc(OCC2c3cc(OC)c(OC)cc3CCN2C(=O)c2ccco2)cc1", "note": "(stereo not drawn)", "Potency": "active: 1.58 µM"}
{"smiles": "COc1ccc(CNc2ccnc(-c3cccnc3)n2)c(OC)c1", "Potency": "inconclusive: 12.6 µM [rising, partial curve]"}
{"smiles": "CC(C)c1nc(-c2c(N)n(C)c(=O)n(C)c2=O)sc1C(=O)C(C)(C)C", "activity change, negative = inhibition": "inactive: 1.64%"}
{"smiles": "c1ccc(Cc2nnc3sc(-c4ccccn4)nn23)cc1", "Potency": "inconclusive: 0.2 µM [rising, full curve]"}
{"smiles": "C[N+]1(NCC[N@@+]2(C)CCc3ccccc3C2)CCCCC1", "activity change, negative = inhibition": "inactive: 5.2% [at 7.6 µM]"}
{"smiles": "Cc1ccc(N2CCCCn3c2nc2c3c(=O)n(CC(=O)O)c(=O)n2C)cc1", "activity change, negative = inhibition": "inconclusive: 0.714%"}
{"smiles": "CCOc1ncccc1C(=O)OCc1ccc(C(=O)OC)o1", "Potency": "inconclusive: 12.6 µM [rising, partial curve]"}
{"smiles": "Cc1ccc2nc(-c3ccc(NC(=O)CN4CCN(C(=O)c5ccco5)CC4)cc3)sc2c1", "Potency": "inconclusive: 3.98 µM [rising, partial curve, poor fit]"}
{"smiles": "CCOc1ccc(C2C=C(c3ccc(C)cc3)Nc3nnnn32)cc1", "note": "(stereo not drawn)", "Potency": "inconclusive: 25.1 µM [falling, single point]"}
{"smiles": "CN(C)Cc1ccccc1-c1nc(N2CCOCC2)c2ccccc2n1", "activity change, negative = inhibition": "inconclusive: 22.3%"}
{"smiles": "CC(C)C[C@@H](CC(=O)N[C@@H](CCC(=O)O)CC(=O)O)NC(=O)[C@@H]1CCCC[C@H]1NC(=O)C[C@H](CCCN)NC(=O)C[C@H](CO)NC(=O)[C@@H]1CCCC[C@H]1N", "activity change, negative = inhibition": "inactive: -5.91%"}
{"smiles": "COc1ncc2nc(-c3cc(F)cc(F)c3)c(=O)n(-c3ccccc3)c2n1", "Potency": "inconclusive: 20 µM [rising, single point]"}
{"smiles": "C/C(N)=C(/C#N)C(=O)COC(=O)COc1ccc(Cl)cc1", "activity change, negative = inhibition": "inconclusive: -17%"}
{"smiles": "COc1ccc(-n2nc3ccc(NS(C)(=O)=O)cc3n2)cc1Cl", "activity change, negative = inhibition": "inactive: 4.04%"}
{"smiles": "CCOC(=O)CCNC(=O)CNC(=O)OCc1ccccc1", "activity change, negative = inhibition": "inactive: -7.26%"}
{"smiles": "Cc1ccc(NCc2nnc(SCC(=O)c3ccccc3)o2)c(C)c1", "activity change, negative = inhibition": "inactive: -18.5%"}
{"smiles": "Cn1c(=O)c(-c2cc(F)cc(F)c2)nc2cnc(Nc3ccccc3)nc21", "Potency": "inconclusive: 0.631 µM [rising, full curve]"}
{"smiles": "Cc1cc(/C=N/n2cnnc2)c(C)n1-c1ccc(Cl)cc1Cl", "Potency": "inconclusive: 3.16 µM [rising, partial curve]"}
{"smiles": "Cc1ccc(C(C)(C)C)cc1", "activity change, negative = inhibition": "inactive: -0.686%"}
{"smiles": "CC[C@@H](c1ccc2cc(O)ccc2c1)C(C)(C)C(=O)O", "activity change, negative = inhibition": "inactive: -6.23% [at 7.6 µM]"}
{"smiles": "CCc1ccc(-c2nc(CN3CCC(C(=O)NCc4ccccc4OC)CC3)c(C)o2)cc1", "activity change, negative = inhibition": "inconclusive: -2%"}
{"smiles": "CCOC(=O)N1CCN(C(=O)CCn2nc(-c3ccccc3)ccc2=O)CC1", "activity change, negative = inhibition": "inconclusive: 12.1%"}
{"smiles": "O=C(c1c[nH]c2ccccc12)C(O)C(c1ccccc1)N1CCOCC1", "note": "(stereo not drawn)", "activity change, negative = inhibition": "inactive: -12.8%"}
{"smiles": "COc1ccc(-n2nc(C(=O)NCC(=O)NCc3ccco3)c3ccccc3c2=O)cc1Cl", "activity change, negative = inhibition": "inconclusive: 47%"}
{"smiles": "COc1ccc(NC(=O)N2CCCC(c3nc(-c4ccc(C(C)C)cc4)no3)C2)cc1", "note": "(stereo not drawn)", "activity change, negative = inhibition": "inconclusive: -7.87%"}
{"smiles": "COC(=O)c1ccc(CSc2ccc3nnc(-c4ccccn4)n3n2)o1", "Potency": "inconclusive: 10 µM [rising, single point]"}
{"smiles": "CCCC(=O)Nc1ccc(NC(=O)C2CC2)cn1", "activity change, negative = inhibition": "inconclusive: -29.8%"}
{"smiles": "O=C(Nc1ccc2c(c1)OCCO2)C1CCN(S(=O)(=O)c2cccs2)CC1", "activity change, negative = inhibition": "inconclusive: 15.7%"}
{"smiles": "Cc1ccc(C)c2[nH]c(=O)c(CCNC(=O)c3ccc(S(=O)(=O)N(C)C)cc3)cc12", "activity change, negative = inhibition": "inconclusive: 21.1%"}
{"smiles": "Cc1cc(NC(=O)C2CCCCC2C(=O)O)no1", "note": "(stereo not drawn)", "activity change, negative = inhibition": "inconclusive: -27.9%"}
{"smiles": "CC(=NCc1ccco1)c1c(C)[nH]n(-c2nc3ccccc3s2)c1=O", "activity change, negative = inhibition": "inconclusive: 6.55%"}
{"smiles": "COc1cccc2cc(-c3nnc(SCC(=O)Nc4cc(C(F)(F)F)ccc4Cl)n3N)oc12", "activity change, negative = inhibition": "inactive: 4.36%"}
{"smiles": "COC(=O)c1cc(OC)c(OC)cc1NC(=O)Nc1ccccc1OC", "activity change, negative = inhibition": "inactive: 21.8%"}
{"smiles": "c1ccc2c(c1)[nH]c1ccccc12", "activity change, negative = inhibition": "inactive: 7.51%"}
{"smiles": "Cc1cc(/C=N/n2cnnc2)c(C)n1-c1cc(Cl)ccc1Cl", "Potency": "active: 2 µM"}
{"smiles": "Nn1c(SCC(=O)Nc2ccc(F)cc2)nnc1-c1ccccn1", "activity change, negative = inhibition": "inconclusive: -8.56%"}
{"smiles": "Cc1nc2nc[nH]n2c(=O)c1NC(=O)c1c(-c2ccccc2Cl)noc1C", "activity change, negative = inhibition": "inconclusive: 8.83%"}
{"smiles": "CCCCCCn1c(N2CCN(c3cccc(Cl)c3)CC2)nc2c1c(=O)[nH]c(=O)n2C", "activity change, negative = inhibition": "inconclusive: -0.00327%"}
{"smiles": "COc1ccccc1CN1CC[C@@]2(CCCN(C(=O)c3cnccn3)C2)C1", "activity change, negative = inhibition": "inactive: -2.08%"}
{"smiles": "CCCCCCC(=O)c1c(C)[nH]c(C(=O)OCC)c1C", "Potency": "inconclusive: 12.6 µM [rising, single point]"}
{"smiles": "COC(=O)C1=CNC=C(C(=O)OC)C1c1ccccc1Cl", "Potency": "active: 10 µM"}
{"smiles": "COc1ccc(C(=O)[C@H](Br)[C@H](Br)C(=O)O)cc1", "activity change, negative = inhibition": "inactive: -8.26% [at 7.6 µM]"}
{"smiles": "Cc1ccccc1-c1cncnc1N1CCN(C)CC1", "activity change, negative = inhibition": "inconclusive: 1.66%"}
{"smiles": "Cc1[nH]nc(N=CC2=C(O)CC(C)(C)CC2=O)c1-c1ccc(Cl)cc1", "activity change, negative = inhibition": "inactive: -4.94%"}
{"smiles": "Cc1cc(C)n(-c2nc3ccccc3c(=O)n2OCc2ccc(F)cc2)n1", "activity change, negative = inhibition": "inconclusive: -8.18%"}
{"smiles": "CCN(CCCNC(=O)c1c(C)cc(=O)oc1C)c1ccccc1", "activity change, negative = inhibition": "inconclusive: -4.02%"}
{"smiles": "COc1cccc(-n2nnnc2SCC(=O)Nc2cccc(C)n2)c1", "activity change, negative = inhibition": "inconclusive: -16.2%"}
{"smiles": "Cc1noc(C)c1-c1ccc2ncnc(N(C)Cc3ccco3)c2c1", "Potency": "inconclusive: 10 µM [rising, partial curve]"}
{"smiles": "CC(=O)N1CCN(Cc2nc3cc(NS(C)(=O)=O)ccc3n2C)CC1", "activity change, negative = inhibition": "inactive: -16.1%"}
{"smiles": "Cc1nc(SCC(=O)Nc2ccccc2)c2oc3ccccc3c2n1", "Potency": "active: 0.501 µM"}
{"smiles": "COc1cc(C(=O)N(CCc2ccccc2)C2CC3CCC(C2)N3C)cc(OC)c1OC", "note": "(stereo not drawn)", "activity change, negative = inhibition": "inactive: -6.79%"}
{"smiles": "O=C(Nc1ccccc1-c1ccccc1)NC1CCN(C(=O)N2CCOCC2)CC1", "activity change, negative = inhibition": "inactive: -9.69%"}
{"smiles": "N#Cc1ccc(COC(=O)c2ccc3c(=O)[nH]c(CN4CCOCC4)nc3c2)cc1", "activity change, negative = inhibition": "inactive: -10.4%"}
{"smiles": "COc1ccc(CCNC(=O)Cn2nnc(-c3cccc(OC)c3OC)n2)cc1OC", "Potency": "inconclusive: 5.01 µM [rising, full curve, poor fit]"}
{"smiles": "O=C1NCC2=C1C(c1ccc(Br)cc1)Nc1ccccc1N2", "note": "(stereo not drawn)", "Potency": "inconclusive: 2.51 µM [falling, single point]"}
{"smiles": "CN1CCN(c2ncc3nc(-c4cccs4)c(=O)n(Cc4cccs4)c3n2)CC1", "Potency": "inconclusive: 0.316 µM [rising, full curve]"}
{"smiles": "C=C(C)COc1ccc2c(C)c(C)c(=O)oc2c1OCC(=C)C", "activity change, negative = inhibition": "inactive: -4.87%"}
{"smiles": "O=C(COC(=O)c1cccs1)c1ccccc1", "activity change, negative = inhibition": "inconclusive: -2.16%"}
{"smiles": "CCC1CCCCN1C(=O)C1CC(c2cc(Cl)c(OC)cc2OC)=NO1", "note": "(stereo not drawn)", "Potency": "inconclusive: 3.98 µM [rising, full curve]"}
{"smiles": "CS(=O)(=O)c1cccc(C(=O)Oc2ccccc2)c1", "Potency": "inconclusive: 5.01 µM [falling, single point]"}
{"smiles": "COc1ccccc1C(=O)NC(C)c1nc2ccccc2[nH]1", "note": "(stereo not drawn)", "Potency": "inconclusive: 3.16 µM [rising, full curve, poor fit]"}
{"smiles": "COC(=O)c1ccc2c(c1)NC(=O)C(N1CCCC1)S2", "note": "(stereo not drawn)", "activity change, negative = inhibition": "inconclusive: 4.98%"}
{"smiles": "O=C(O)c1ccc2c(c1)C(=O)N(c1cc(C(=O)O)ccc1Br)C2=O", "activity change, negative = inhibition": "inactive: -4.77%"}
{"smiles": "O=C(CSc1nnc(-c2ccncc2)o1)Nc1ccccc1Cl", "activity change, negative = inhibition": "inconclusive: 28%"}
{"smiles": "C[C@H](O)CO[C@H]1[C@H]2O[C@H]3[C@H](O)[C@@H](O)[C@@H](O[C@H]4[C@H](O)[C@@H](O)[C@@H](O[C@H]5[C@H](O)[C@@H](O)[C@@H](O[C@H]6[C@H](O)[C@@H](OC[C@H](C)O)[C@@H](O[C@H]7[C@H](O)[C@@H](OC[C@H](C)O)[C@@H](O[C@H]8[C@H](O)[C@@H](O)[C@@H](O[C@@H]([C@@H]1O)[C@@H](CO)O2)O[C@@H]8CO)O[C@@H]7CO)O[C@@H]6CO)O[C@@H]5CO)O[C@@H]4CO)O[C@@H]3CO", "activity change, negative = inhibition": "inactive: -14.6%"}
{"smiles": "COC(=O)c1sc2ccccc2c1N", "activity change, negative = inhibition": "inactive: -6.92%"}
{"smiles": "CN(C)C=Nc1ncc2c3ccccc3n(Cc3ccccc3)c2c1C#N", "Potency": "inconclusive: 5.01 µM [rising, partial curve]"}
{"smiles": "CC(=O)Nc1ccc(S(=O)(=O)NC(=O)C23CC4CC(CC(C4)C2)C3)cc1", "activity change, negative = inhibition": "inactive: -1.41%"}
{"smiles": "c1ccc(CNc2nc(-c3cccnc3)nc3ccccc23)cc1", "Potency": "inconclusive: 10 µM [rising, partial curve]"}
{"smiles": "CCN(C#N)c1nc(N(C)C)nc(N(C)C)n1", "Potency": "inconclusive: 0.316 µM [rising, full curve]"}
{"smiles": "Cc1ccc(S(=O)(=O)C2(C(=O)NC3CCCC3)CC2)cc1", "activity change, negative = inhibition": "inactive: -2.13%"}
{"smiles": "N=C(N=C(N)N)N1CCOCC1", "Potency": "inconclusive: 2.51 µM [rising, full curve, poor fit]"}
{"smiles": "Cc1cc2ccccc2c(=O)n1CC(=O)N(C)c1ccc(F)cc1", "Potency": "inconclusive: 0.158 µM [falling, partial curve]"}
{"smiles": "COc1ccc(Oc2ncc3nc(CCc4ccccc4)c(=O)n(C[C@H]4CCCO4)c3n2)cc1", "activity change, negative = inhibition": "inconclusive: -4.12%"}
